From the RNAGym collection of RNA variant scans (doi:10.1073/pnas.2313332121)
Variants at the floor of the assay are shown more often than the library holds them.

B1: TPR 5TU (parent)
chain: GGAUCUUCUCGAUCUAACAAAAAAGACAAAUCUGCCACAAAGCUUGAGAGCAUCUUCGGAUGCAGAGGCGGCAGCCUUCGGUGGCGCGAUAGCGCCAACGUUCUCAACUAUGACACGCAAAACGCGUGCUCCGUUGAAUGGAGUUUAUCAUG

Variants of: B1
Experiment: polymerase ribozyme fitness, log enrichment relative to wild type (log ratio); higher = more active; in vitro selection for triplet polymerase activity
Summary of the method: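 A single round of triplicate in vitro selection, including frozen incubation at −7 °C, was applied to PCR-built, transcribed mutant libraries of each subunit of a heterodimeric triplet polymerase ribozyme. Illumina sequencing of input and output libraries retained genotypes with ≥10 input reads and ≥1 read per output. Fitness is the base-2 logarithm of genotype enrichment divided by wild-type enrichment, from inverse-variance-weighted replicate averages.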

Variant	polymerase ribozyme fitness (log ratio)
A19G G74A G88C C131G G133A	≤ -4.2
A19G G84A	-1.52
A19G G84A C105A U127C G141C	≤ -4.2
A19G G94U C96U C116A C125U G133U	≤ -4.2
A19G U31A U135G	≤ -4.2
A19G U31C A52C A60U G62A C103G	≤ -4.2
A19G U31G U53A C75G C95U G112U A122G	≤ -4.2
A19G U33C C43U G48C G58A U78G C79U U134G	≤ -4.2
A19G U33C C85G A97C	≤ -4.2
A19G U33G	≤ -4.2
A19G U44G C75U A89U C93U U102A C129U G140A	≤ -4.2
A19G U53A A91G U102A	≤ -4.2
A19G U53C A73U A91C	≤ -4.2
A19G U55G A64C A122G A138C U144G	≤ -4.2
A19U A20C A73G G92U C116A	-0.142
A19U A20C U55A A73C G84A C96A G143A U145G U146G C149G	≤ -4.2
A19U A20G U45G G46U A49C U90G C96G C132U	≤ -4.2
A19U A21C A39G G67C C87G U135G G140U	≤ -4.2
A19U A21C C32A U44A G92C G128A	≤ -4.2
A19U A21U A41C C99U U111A G133C	≤ -4.2
A19U A21U C76A C87U G152C	≤ -4.2

Variant	polymerase ribozyme fitness (log ratio)
A19U A21U G46C C96A U134A	≤ -4.2
A19U A22C C93U U145A	-1.22
A19U A22G C38A U61G G88A C99G	≤ -4.2
A19U A22U C35U C75U C93G U146G	≤ -4.2
A19U A23G C38U A60G C96A C103G G143A	≤ -4.2
A19U A23G G84A U101G A115C	-3.62
A19U A23G U45A C54U C72G	≤ -4.2
A19U A23U U33A U61G C76U U144G	≤ -4.2
A19U A23U U90G C105A	≤ -4.2
A19U A24C C27G C95A C103G A119U A121U	≤ -4.2
A19U A24U A28C U55C G83A G84A	≤ -4.2
A19U A26C A30U C35U A41U G84A U90G C96U U148C	≤ -4.2
A19U A26C C35U U55G U56C G68U A73G G81A U148C C149A	≤ -4.2
A19U A26G A29U G48U U55C A73G A91U	≤ -4.2
A19U A26G A29U G94U C129U	≤ -4.2
A19U A26U U55A C75U G124A G141U	≤ -4.2
A19U A26U U90G C118U A120U G136U	≤ -4.2
A19U A28G C38A C85U C125U G126U G143U	≤ -4.2
A19U A28G G50A G68A G94U	≤ -4.2
A19U A29U A30U C76A C79A A150C	≤ -4.2
A19U A29U U31A G48C G92U	≤ -4.2

Variant	polymerase ribozyme fitness (log ratio)
A19U A30C G42A C43G C54G G70U U77C C96G A107G	≤ -4.2
A19U A30U U55G G59A G86U A150U	≤ -4.2
A19U A37U C38U G80U G83U A150G	≤ -4.2
A19U A39G C85U U134G	≤ -4.2
A19U A40C G86C G100C C125U	≤ -4.2
A19U A40G G50C A52U C54U C96A G140U	≤ -4.2
A19U A47C C69A G83A C95G A115U U144G	≤ -4.2
A19U A49C A91G	≤ -4.2
A19U A49C C76A C93U U146A U151C	≤ -4.2
A19U A49C C96U A98G U104G C131G	≤ -4.2
A19U A49G G83U A91U G136U U148G	≤ -4.2
A19U A60G C72U G143U	≤ -4.2
A19U A64G C85G	≤ -4.2
A19U A66C C72U G84U	≤ -4.2
A19U A73G G83A U90C A107G	≤ -4.2
A19U C27G G59U C87A A122U	≤ -4.2
A19U C32A C35G A91C C93U	≤ -4.2
A19U C32A C87A C114G G136C U146C	≤ -4.2
A19U C32G C85A A115C	≤ -4.2
A19U C32G G50A G62A U90G A91U C116A	≤ -4.2
A19U C35A A49U	≤ -4.2

Variant	polymerase ribozyme fitness (log ratio)
A19U C35A C93G U102A U127C	≤ -4.2
A19U C36U G81A C95G A121U G128A A137U U139A	≤ -4.2
A19U C38A C95G A113U A142U	≤ -4.2
A19U C38G C43U G80C C85A G92C C93A U146A	≤ -4.2
A19U C38U C43A U55A G59C G128U	≤ -4.2
A19U C38U G50A C79A	≤ -4.2
A19U C43A A52C U53A C72U G83A	≤ -4.2
A19U C43A U55A C85A C95G A110U U146C	≤ -4.2
A19U C43U A73U C79U A106U A107C	≤ -4.2
A19U C43U C93G C118U	≤ -4.2
A19U C51U C54A C85G C132G	≤ -4.2
A19U C54A C79G C85U G117U	≤ -4.2
A19U C54U G68U G83A G100U C116A	≤ -4.2
A19U C57A A60C C93A	≤ -4.2
A19U C57G C96G C116G	-0.687
A19U C57U A64C C85U A91U C108G	≤ -4.2
A19U C57U G62U C69U C85U C99G U130C G136U U146G	≤ -4.2
A19U C63G G70A A97G	≤ -4.2
A19U C69A G92U U104G C108G C118U C123G U139A	≤ -4.2
A19U C75A C93A U102C C103A	≤ -4.2
